# Measurements as given in the supplement of paper PMC11417369.
# Some of the results follow.
# System: PfSIP2 AP2 domain 1 (GST-tagged)
# Assay: gcPBM binding intensity (ln(normalized median fluorescence intensity)); higher = stronger DNA binding
# In short: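 Plasmodium falciparum DNA-binding domains carrying a GST tag were expressed in E. coli and applied for 1 h, at about 25 μg on average, to an Agilent 4 × 180k array. The array held primer-extended double-stranded 36-bp intergenic genomic probes together with negative controls, and binding took place in 1× PBS with 1% milk, 0.2 mg/ml BSA, 0.5% salmon testes DNA and 0.03% Triton X-100. An Alexa488 anti-GST antibody detected bound protein, and the array was scanned at 488 nm. Binding intensity is taken as the highest Masliner-normalised natural-log median intensity across replicate spots of either probe orientation.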
row,Sequence,gcPBM binding intensity (ln)
1,ATACACGTTTTACAATGTACAGAAAGTATACATAAT [XGTACX_site4585],7.35
2,GTATTTTTTTTCTTTTGTACATATATATAAAGAATA [XGTACX_site4569],7.62
3,TATTATATATATAAATGTACATATTATTTTTCTTTT [XGTACX_site8670],6.92
4,AAGAATTTTCGATTTGCACACATTTGTAAAATAAAA [CACACA_site2354],7.32
5,CAACAAAAGAAACACACACACACAAACACAAAAAAA [CACACA_site3389],7.15
6,TGTATACCTTAATATACACACATACATATATATATA [CACACA_site8370],9.13
7,GGATATATTATATGTACACACATATATAACGGATAT [CACACA_site1309],7.15
8,ATGTAATAAATACTACGTACATATATATGTGTTAAT [XGTACX_site3265],7.01
9,ATATACATATTTTTGACACACATTAGGAAAATATAT [CACACA_site4123],7.11
10,ATATATAAATATAGCATACACACAAAAAAATAAAAT [CACACA_site2332],7.11
11,TATTATTTATATGATACACACGTACATATACACATA [CACACA_site9275],7.02
12,TTCATTAAAACGAATACACACATAAATATATAAAAG [CACACA_site4824],7.06
13,AAATATATATATATTACACACTATATATTTATTTAT [CACACA_site681],7.1
14,AAAAATAAAATAAAATAAAATAAAAATAAAGAAAAA [CACACA_negctrl_site808],6.63
15,AGTAGTCTGGAGAAAAGTACACAGTATCTGGTAACA [XGTACX_site2034],6.79
16,ACAAATAAAAAAATTACACACATATATAATATATAT [CACACA_site1361],7.13
17,ATTTGACACGTATATGCACACACCCGTAAGTGTCCA [CACACA_site8891],8.08
18,TATTAACTCAATAGCGCACACTTTTAATATTTTATA [CACACA_site4973],7.33
19,TTATAAATTTTTAATAGTACATAAAATTAAAGGTAA [XGTACX_site760],7.21
20,ATGTGATAATTTAGGAGTACTGTCATAAGCATTTCT [XGTACX_site3091],7.05
21,TCATAAAAAGGAATCTTTAAGATATTTTATAAGCTC [XGTACX_negctrl_site18],6.63
22,TTTCTTTATTTATAATAATTTTTTATTAAAAATAGA [CACACA_negctrl_site1610],6.78

row,Sequence,gcPBM binding intensity (ln)
1,AGTGCATAATATTTATGTACGTATCACATATATTTT [XGTACX_site5166],9.05
2,AATAAATGTCTGTTAATGCACACGATATGTCTATAT [CACACA_site2351],7.38
3,ATGTATCGTAACAAATGTACAAGAGGATGTTTAGAC [XGTACX_site3355],7.66
4,GATATATTTTGTTATGTAGATGTTGGTAGGAATTTT [GTGCAC_negctrl_site485],7.05
5,GTATTTATATGATTAACACACATATGTGGATTAATA [CACACA_site1315],7.01
6,TATATAACTACAAGAACACACATATAAATATAAATA [CACACA_site7210],6.96
7,GTAATTAAGATATATACACACAAAGGCTATTAAATA [CACACA_site6604],6.97
8,ATATATATATATATATGTACGTAAACAAAAATTTAT [XGTACX_site6780],9.31
9,TATTGATAAAAAATATGTACATATATACATATATAT [XGTACX_site3821],7.37
10,TAATTACCATATGGTACACACATATATATCTGTATA [CACACA_site5849],6.98
11,AATAATATCTGAAAATGTACATTTTATTATAAACAT [XGTACX_site8441],7.02
12,AAGAAGAGTTATTGTAGTACATTTTTAAATGTAATA [XGTACX_site7664],6.9
13,AAGAATTATAGAAACACACATACATACAGACATACA [CACACA_site1943],6.99
14,TATTTGGGTATTTTTACACACATTAATATATATATA [CACACA_site9114],8.76
15,AAAGATAATAATATGCGTACATAAAAATATATGATA [XGTACX_site6884],7.13
16,ATAATGGAAAAAAAATATAATAATACGAAATAGGAA [TGCATGCA_negctrl_site64],7.28
17,AGTTAAATGAATCAATACATAAATATGTATATATAT [TGCATGCA_negctrl_site539],7.44
18,TTTTTTTAATAAATTTATAACAATATGATAGGTGAC [CACACA_negctrl_site1783],7.83
19,TGAATCAATTGTTGCTGTACATAAGGTATACAATAA [XGTACX_site5127],6.99
20,TAAATAAATACATACACACACATACCTATATTTATA [CACACA_site7466],7
21,AATATAAATATAAATATAAATATATATATATATATA [TGCATGCA_negctrl_site603],9.38
22,TTTTATAAAAACAAAAACAAAGGCACTTTCTAAAGA [XGTACX_negctrl_site130],7.12

row,Sequence,gcPBM binding intensity (ln)
1,ATAATGTATATTATTGCACACATATATAAAATTATG [CACACA_site8280],7.29
2,TGTATACACATATGTACACACATATAGATGTATATG [CACACA_site7447],7.02
3,AAAGACAAAAGGAATTGTACATAATATATAAAATAT [XGTACX_site2923],6.99
4,AATTTTATTTAAAGTGCATGTAAAATTAAAACTTTT [TGCATGCA_site989],9.41
5,ATATAAAATATGAGTAGTACATATTTTCTCATCTTA [XGTACX_site8595],6.84
6,GGGAAACGATTTAATACACACACGTATTATATATAT [CACACA_site1160],7.77
7,CATTTTTTGTAAAATCGTACATATACATAAAGTGGT [XGTACX_site3423],7.21
8,CACAAAAGTAAGCACGCACACACAACATGAAATAAA [CACACA_site7938],7.1
9,TATGAATTTATCTACAACATTTGAAATAAATTAAAA [CACACA_negctrl_site79],6.72
10,AATACACACCTGTGGGTGCTTATAATAAGCCACAAA,7.66
11,TATTTTTTTATTTATTGTACTTTAAAAAAAATTAAA [XGTACX_site6167],7.39
12,TAACAAATATTATTTTGTACATAATATATATATATA [XGTACX_site6898],8.45
13,TTATAAAAATATTACGCACACACAAACTTATTCATT [CACACA_site1970],7.06
14,TATATATATTAATTTATTTATTTGTTTATTTATTTA [CACACA_negctrl_site185],7.31
15,ATATATTTATATTATACACACAAAAATATTTTGTAT [CACACA_site6262],6.96
16,ATATAATAATATTATACATGCAAAATATGTTCTTCA [TGCATGCA_site115],6.95
17,AGACTATCATTTTTTTAACACACAAAAAAAATAAAA [CACACA_site9173],7.06
18,ATCGCATATACATTATATTTTATAATAATTATTTTT [GTGCAC_negctrl_site48],7.17
19,GGAACCATCCAAAAAAAAAAAAAAAATAATAATAAT [CACACA_negctrl_site383],6.76
20,ACATGTACAGAAATTTATATATATATATATATATAT [CACACA_negctrl_site1584],9.51
21,ATTATTATGTATTGCCGTACACATATTATCACAGAA [XGTACX_site3740],7.2
22,TCTTCATATATAATTGTACACACAAAAACGACATTG [CACACA_site8645],7.31

row,Sequence,gcPBM binding intensity (ln)
1,TATTATAATTAATATACACACGCTTATATATATATA [CACACA_site75],9.05
2,TATAAATAAACATTTACACACTCTTATAATAAATAT [CACACA_site1679],6.76
3,AACTAATAGTATATTACATGCAAAAGTAAAAGTAAA [TGCATGCA_site411],7.24
4,CTCACAATACTTACATGTACATATTATATATATAAA [XGTACX_site1880],7.54
5,GTTGAAATAAAATTAGTGCATATATAAATATATATA,8.93
6,ACTGAAAAAAGAAATACACACATTCTGGATCAGATA [CACACA_site7760],6.87
7,TCATTCTTGTGTTTATGTACACATATTTATATTGTA [XGTACX_site710],7.16
8,TTATCATTTTTGGAATGTACTTACATTAAATATTTA [XGTACX_site4034],6.87
9,TATATGCAAAATGTCACACATGTGATAAATACATAT [CACACA_site4302],6.89
10,ATTTTATTTTTTCACACACACATATATATATATATA [CACACA_site3334],9.37
11,CCCAGGAATATAAAATGTACATAAAAAATACAAATT [XGTACX_site1708],7.07
12,AGTACATTATAGAATACACACCTATACATTTATATA [CACACA_site6391],6.91
13,TTTTTTTTTTTTGGATGTACTTAATGAAAATGTTAC [XGTACX_site8980],7.36
14,TAAGCACAAGCACAAGCACACATTTATATATATATA [CACACA_site883],8.95
15,TCTTTGTATATATGTTCATTTGTAATATATATTCAT [TGCATGCA_negctrl_site467],7.18
16,TATTTGTGAAGAAATTGTACTCATATCTACATTTAT [XGTACX_site2245],6.96
17,ATAATAATATAAAAATGTACATATATTTATAATTGT [XGTACX_site3429],7.15
18,TGATTATTTTATATTTGTACACATATCATATAAAAA [XGTACX_site5868],7.13
19,ATGCAAACTAAAAGACGTACAGAAAAGTATCATACT [XGTACX_site8766],7.63
20,ACGTTTTTGAGTAGTACACACACAATAAGGATGGAT [CACACA_site9044],7.44
21,ACATAATATTGAAGAAGTACAAATTTTATTTATTAT [XGTACX_site4113],7.01
22,AATATAATATATATTAGTACATATATATATATATAT [XGTACX_site870],9.56
